Experimental data: the BET-seq Pho4 binding data (Le et al. 2018)
This is one part of the list. Values were computed here from the reads of four pooled replicates and scatter widely.

biological target: T1, Pho4 (S. cerevisiae) (UniProt P07270); assay: relative binding free energy (BET-seq); higher = weaker binding; details: reference: library average
T1 sequence: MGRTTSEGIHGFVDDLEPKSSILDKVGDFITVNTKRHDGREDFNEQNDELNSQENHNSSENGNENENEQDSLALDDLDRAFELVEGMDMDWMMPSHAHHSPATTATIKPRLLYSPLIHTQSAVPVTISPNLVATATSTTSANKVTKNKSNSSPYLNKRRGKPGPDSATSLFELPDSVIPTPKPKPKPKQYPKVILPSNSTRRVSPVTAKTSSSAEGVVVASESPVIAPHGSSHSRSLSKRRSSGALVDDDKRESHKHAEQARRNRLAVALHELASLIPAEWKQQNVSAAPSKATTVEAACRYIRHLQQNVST

Sequence | relative binding free energy [kcal/mol]
TTCTTCACGTGTGTCT | 0.25
TGGCGCACGTGGTTGC | -0.13
AGCGTCACGTGGGATG | -0.03
GTGCGCACGTGGCGTA | -0.18
AGTAGCACGTGTTTGT | -0.02
ATGTGCACGTGCGTCG | -0.02
CGTTGCACGTGTCGGT | 0.11
TTCGGCACGTGATAAT | 0.1
TTCGGCACGTGATATG | -0.05
TGTGGCACGTGTTGAC | -0.13
CTGTACACGTGTAAGG | 0.15
TATTACACGTGTGTGA | 0.17
AAGAGCACGTGGGGGT | -0.13
TTTCTCACGTGGGCTT | 0.15
TCCGGCACGTGTTAGG | -0.01
ATTGGCACGTGGTCGC | -0.33
AGTTGCACGTGTTAGG | 0.05
AAGTCCACGTGATTGG | 0.33
TGTGGCACGTGGGCGT | -0.21
CAAGACACGTGGTGGT | -0.17
TTAGACACGTGCGCGG | -0.13
CGGGACACGTGAAGTT | 0.35
CAGGGCACGTGTATTA | 0.07
GGGAGCACGTGGGGCG | -0.1
AGGCGCACGTGCGGTT | -0.25

Sequence | relative binding free energy [kcal/mol]
ATGTTCACGTGTCTGG | 0.23
GGCCGCACGTGAGGTG | 0.06
TATGACACGTGGAGAG | 0
TGAGTCACGTGCTCGG | 0.15
AAGGTCACGTGAGTTA | 0.16
AATGTCACGTGCTGGT | 0.05
GAAGTCACGTGTGGAA | 0.12
AGGGTCACGTGTCGGT | 0.19
TTATGCACGTGTCCGT | -0.02
CTTTTCACGTGGTAAT | 0.18
CGTATCACGTGTTTAG | 0.14
CTTGTCACGTGGTGGA | 0.03
TAAAACACGTGGTATT | -0.1
AGTTACACGTGGGGCC | 0.02
GTTGTCACGTGGATTA | 0.14
TGGGTCACGTGATGCG | 0.15
GCTATCACGTGTGTTT | 0.24
AGGGACACGTGGGTAG | -0.17
GTATTCACGTGAGATA | 0.39
ATGCGCACGTGCCGGG | -0.06
AGGATCACGTGCGTTT | 0.2
AGGTGCACGTGGTAAT | -0.17
TTGGCCACGTGAGGTC | 0.33
GGTTGCACGTGTCTGT | -0.03
GGATACACGTGAAGGG | 0.27

Sequence | relative binding free energy [kcal/mol]
CATATCACGTGTGTTT | 0.07
TTGTCCACGTGGATTA | 0.04
TGTTACACGTGGACTA | 0.14
TGGGTCACGTGTGACG | 0.15
GCTCGCACGTGGGATG | -0.11
AGTTACACGTGCGTTG | 0.08
CGTTGCACGTGGGTCG | -0.17
GGCGCCACGTGTGGTG | 0.08
TGCTTCACGTGGGTTC | -0.03
TGGGTCACGTGGTGCT | 0.04
CTAAGCACGTGTTTAG | -0.08
TGTAGCACGTGTAAAT | 0.15
GTTAACACGTGAGGTA | 0.19
TTGTACACGTGCCGGG | -0.04
TATTCCACGTGTTTAG | 0.13
GAGGGCACGTGGAGAA | -0.06
CTTTTCACGTGGTAGC | 0.31
GGTCTCACGTGGTGAA | 0.2
CGTTTCACGTGAAGGT | 0.32
TTCTGCACGTGAGGAG | 0.29
CGGCGCACGTGCGGGG | -0.3
TATTACACGTGGGGGT | -0.1
AGTACCACGTGTTTGG | -0.09
ATCTTCACGTGTATGG | 0.15
TTCGTCACGTGTGCTA | 0.07

Sequence | relative binding free energy [kcal/mol]
TTGTTCACGTGCAAGG | 0.33
TTGAACACGTGTTTGA | 0.14
TGGGGCACGTGAAGAA | 0.1
TTGTACACGTGTCGTC | 0.12
CCTGGCACGTGAGGTT | 0.17
AATGGCACGTGCTAGG | -0.12
AGGATCACGTGATTTG | 0.22
CTAGTCACGTGTAGTA | 0.09
GGTTTCACGTGGTGAT | 0.35
GTAGTCACGTGCGAGT | 0.07
GGATGCACGTGAGCTA | 0.4
AGTGGCACGTGAGCAT | 0.04
ATATACACGTGTGTAT | 0.05
TTCGGCACGTGTTGCT | -0.12
AAGGGCACGTGGGCTT | -0.21
ATGGGCACGTGGGTGC | -0.14
TATTACACGTGGAGTG | 0.01
ACGTTCACGTGGTCGG | 0.14
AGGTGCACGTGCATGT | -0.01
TGTGACACGTGGGTGT | -0.11
TCTATCACGTGGAATT | 0.32
ATTTGCACGTGTTCAT | 0.01
TTTTGCACGTGTGTAG | 0.09
TCTTTCACGTGAGTGG | 0.37
GGACGCACGTGAAGTG | 0.3

Sequence | relative binding free energy [kcal/mol]
TTGGGCACGTGTTATG | -0.11
ATGGGCACGTGTTGGA | -0.03
TTTGTCACGTGAAGTT | 0.49
GATGGCACGTGCTTTG | -0.01
GAAGGCACGTGGGTAG | -0.09
GGCGCCACGTGGAAGG | 0.01
AGGGGCACGTGAAGCG | 0.14
GGGAGCACGTGTGCAT | -0.01
GCGGTCACGTGTGTTG | 0.07
GGTTGCACGTGGGGCT | -0.04
TTTAACACGTGTGATT | 0.1
GCGTGCACGTGTTGAG | 0.14
GGCGGCACGTGGTAAA | -0.08
ATTTCCACGTGGAGTT | 0.13
GTGCGCACGTGGGGCT | -0.28
GGGAACACGTGAAAGG | 0.19
AGGCTCACGTGAGAGG | 0.25
AGTCTCACGTGCTGGG | 0.15
TTATACACGTGTATTC | 0.1
GCGAACACGTGGAGGG | -0.08
GTCTCCACGTGAGGGG | 0.29
TTTGACACGTGCGTCG | -0.14
TCGTGCACGTGGTCTG | -0.26
TATGGCACGTGGATGA | 0.01
TTGACCACGTGAAGGG | 0.31

Sequence | relative binding free energy [kcal/mol]
GATTGCACGTGAAAGG | 0.38
AATAGCACGTGGTGAG | -0.27
TTTCACACGTGGCGGT | 0.08
GTTTTCACGTGTAGTG | 0.26
GGCAGCACGTGTGTTT | -0.1
AATAACACGTGGGGAT | -0.16
TGTAGCACGTGTTTGT | -0.02
GGTGACACGTGGTTAA | -0.07
GTTCGCACGTGTGCAT | 0.21
CTTTTCACGTGACTTG | 0.31
TTGGACACGTGGTTAC | -0.06
TAATACACGTGTTTGT | -0.07
GTAGGCACGTGGCCGT | -0.09
GTGTACACGTGGAGCG | -0.14
GTAGGCACGTGGAATA | 0
GTCAGCACGTGTTGGT | 0.04
CGGAGCACGTGGTTTT | -0.08
GGTTACACGTGATGGA | 0.42
GGTCACACGTGGATGT | -0.02
ATGGGCACGTGGTAGT | -0.18
TGAAGCACGTGAGTTG | 0.13
